The values below come from US20180305451A1 (COMPUGEN, published 2018).

As usually defined, the koff is the first-order rate constant of dissociation.

Assay [1] addresses T1, HIDE1_HH-1 (Human ECD + human IgG1 Fc mutated C220S at hinge), without SP (human).
T1 construct: Batch #280 in the Serotec and phage display work; also called HIDE1 hECD-hIg; HIDE1 (H:H) recombinant Fc fusion protein
The assay is described as follows: BLI Octet RED384, bivalent Fab-A-FH. (In general: BLI is a label-free optical method that tracks binding on a fibre tip over time.)

A further assay addresses T2, human HIDE1-flag (human, UniProt A8MVS5 20-230).
T2 construct: Over-expressed on HEK293, SK-MEL-5, CHO-S and CHO-S OKT3 cells (pMSCV or pcDNA3.1); whole cell extracts in WB; Entry includes the signal peptide; also called hHIDE1 Flag
T2 sequence: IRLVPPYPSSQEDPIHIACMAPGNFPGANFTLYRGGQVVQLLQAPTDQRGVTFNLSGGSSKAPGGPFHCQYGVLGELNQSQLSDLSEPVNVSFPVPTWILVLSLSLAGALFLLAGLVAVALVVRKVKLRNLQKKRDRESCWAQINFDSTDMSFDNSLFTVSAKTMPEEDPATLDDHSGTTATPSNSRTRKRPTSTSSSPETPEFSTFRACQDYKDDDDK
The assay is described as follows: FACS, HEK293 human HIDE1 Flag cells vs HEK293 empty vector, goat anti-human IgG F(ab')2-PE. (In general: A flow cytometer gives signals particle by particle.)

B1: αhHIDE1_AbD25755.1_Ser_Fab (Fab)
heavy: QVQLVQSGAEVKKPGSSVKVSCKASGGTFSSYAISWVRQAPGQGLEWMGGIVPKFGTAYYAQKFQGRVTITADESTSTAYMELSSLRSEDTAVYYCARENLVYSAIAIWGQGTLVTVSSASTKGPSVFPLAPSSKSTSGGTAALGCLVKDYFPEPVTVSWNSGALTSGVHTFPAVLQSSGLYSLSSVVTVPSSSLGTQTYICNVNHKPSNTKVDKKVEPKSEFKAEMPVLENRAAQGDITTPGGARRLTGDQTAALRDSLSDKPAKNIILLIGDGMGDSEITAARNYAEGAGGFFKGIDALPLTGQYTHYALNRKTGKPDYVTSSAASATAWSTGVKTYNGALGVDIHEKDHPTILEMAKAAGLATGNVSTAELQDATPAALVAHVTSRKCYGPSATSEKCPGNALEKGGKGSITEQLLNARADVTLGGGAKTFAETATAGEWQGKTLREQAQARGYQLVSDAASLNSVTEANQQKPLLGLFADGNMPVRWLGPKATYHGNIDKPAVTCTPNPQRNDSVPTLAQMTDKAIELLSKNEKGFFLQVEGASIDKQDHAANPCGQIGETVDLDEAVQRALEFAKKEGNTLVIVTADHAHASQIVAPDTKAPGLTQALNTKDGAVMVMSYGNSEEDSQEHTGSQLRIAAYGPHAANVVGLTDQTDLFYTMKAALGLKGAPDYKDDDDKGAPHHHHHH
light: DIQMTQSPSSLSASVGDRVTITCRASQDISNWLNWYQQKPGKAPKLLIYGASSLQSGVPSRFSGSGSGTDFTLTISSLQPEDFATYYCQQVTSTPFTFGQGTKVEIKRTVAAPSVFIFPPSDEQLKSGTASVVCLLNNFYPREAKVQWKVDNALQSGNSQESVTEQDSKDSTYSLSSTLTLSKADYEKHKVYACEVTHQGLSSPVTKSFNRGEA
modifications: Fab-A-FH format: the Fd chain carries bacterial alkaline phosphatase (which dimerises it, making the Fab bivalent), then FLAG and His6; all of these are in the letters.
notes: Serotec HuCAL Fab-A-FH; also called Ab333
In the case of B1, in assay [1], the Kd came to 20 pM and the koff is 2.65e-05 s⁻¹. The “FACS analysis (GeoMean fold) human HIDE1/empty vector” value in the assay with human HIDE1-flag amounted to 130 fold.

B2: αhHIDE1_AbD25760.1_Ser_Fab (Fab)
heavy: QVQLVQSGAEVKKPGSSVKVSCKASGGTFSDYAINWVRQAPGQGLEWMGGIIPNFGTANYAQKFQGRVTITADESTSTAYMELSSLRSEDTAVYYCARGMRSLGGLSYYFDLWGQGTLVTVSSASTKGPSVFPLAPSSKSTSGGTAALGCLVKDYFPEPVTVSWNSGALTSGVHTFPAVLQSSGLYSLSSVVTVPSSSLGTQTYICNVNHKPSNTKVDKKVEPKSEFKAEMPVLENRAAQGDITTPGGARRLTGDQTAALRDSLSDKPAKNIILLIGDGMGDSEITAARNYAEGAGGFFKGIDALPLTGQYTHYALNRKTGKPDYVTSSAASATAWSTGVKTYNGALGVDIHEKDHPTILEMAKAAGLATGNVSTAELQDATPAALVAHVTSRKCYGPSATSEKCPGNALEKGGKGSITEQLLNARADVTLGGGAKTFAETATAGEWQGKTLREQAQARGYQLVSDAASLNSVTEANQQKPLLGLFADGNMPVRWLGPKATYHGNIDKPAVTCTPNPQRNDSVPTLAQMTDKAIELLSKNEKGFFLQVEGASIDKQDHAANPCGQIGETVDLDEAVQRALEFAKKEGNTLVIVTADHAHASQIVAPDTKAPGLTQALNTKDGAVMVMSYGNSEEDSQEHTGSQLRIAAYGPHAANVVGLTDQTDLFYTMKAALGLKGAPDYKDDDDKGAPHHHHHH
light: DIQMTQSPSSLSASVGDRVTITCRASQSINSYLNWYQQKPGKAPKLLIYAASSLQSGVPSRFSGSGSGTDFTLTISSLQPEDFATYYCQQYIHYPITFGQGTKVEIKRTVAAPSVFIFPPSDEQLKSGTASVVCLLNNFYPREAKVQWKVDNALQSGNSQESVTEQDSKDSTYSLSSTLTLSKADYEKHKVYACEVTHQGLSSPVTKSFNRGEA
modifications: Fab-A-FH format: the Fd chain carries bacterial alkaline phosphatase (which dimerises it, making the Fab bivalent), then FLAG and His6; all of these are in the letters.
notes: Serotec HuCAL Fab-A-FH
Turning to B2, in assay [1], the Kd was 30 pM and the koff was determined as 1.72e-05 s⁻¹. For the same molecule, the “FACS analysis (GeoMean fold) human HIDE1/empty vector” value with human HIDE1-flag is 107 fold.
